These results are taken from PubChem BioAssay AID1508624 (National Center for Advancing Translational Sciences (NCATS), 2021).

Among all 48,000 compounds or so, about 120 (0.25%) were called active. Inconclusive results (about 4%) are left out. The call rests on the fitted dose curve; in most records, active means well fitted activation curve with a large enough effect; inconclusive means small, poorly fitted or top-dose-only effect, or another doubt; inactive means no such curve, though single readings can be large or run the other way. The list shows a part of the results.

This test can be described thus: Primary qHTS for Identification of Small Molecule Activators of Huntingtin-Antisense Promoter Activity. Further: nearly all actives have a fitted effect of over 55% in size. The conditions noted are these: HEK293 HTT-AS promoter firefly luciferase reporter, 24 h; series mostly up to 57.5 µM; activity change, positive = activation: at the top concentration. The method, boiled down:
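HEK293 cells carrying firefly luciferase reporters were seeded at 2,500 per well in Opti-MEM and cultured for 24 h. They were then treated with compounds at up to 57.5 uM final for 24 h at 37 degrees C before Dual-Glo luminescence readout.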
A general note: In qHTS, concentration-response curves come from the screen itself.
With `Cc1c(NC(=O)Nc2ccc(F)c(Cl)c2)c(=O)n(-c2ccccc2)n1C`, the “activity change, positive = activation” value was inactive: 3.31%. With `CCOc1ccc(CCNC(=O)Cn2nnc(-c3ccc(C(F)(F)F)cc3)n2)cc1OCC`, the “activity change, positive = activation” value is inactive: -12.2%. Turning to `CC(=O)Nc1nnc(SCc2cc(=O)c3cccc(Cl)c3[nH]2)s1`, the “activity change, positive = activation” value was inactive: -15.3%.

Take `Cn1cc(CCCC(=O)NCc2ccccc2Cl)c2ccccc21`: the “activity change, positive = activation” value was inactive: -6.33%. Consider `CCOc1ccc(OCC)c(Nc2cc(C)nc3nc(-c4ccco4)nn23)c1`, for which the “activity change, positive = activation” value is inactive: -13.3%. For `CC(=O)N1c2ccc(S(=O)(=O)N3CCCCCC3)cc2CC1C(=O)NCc1ccccc1F` (stereo not given), the “activity change, positive = activation” value was inactive: -9.72%. `CCOc1ccc(CCNC(=O)CN2C(=O)c3cccnc3Oc3ccc(Cl)cc32)cc1`: the “activity change, positive = activation” value is inactive: -14.5%. Take `O=C(c1ccc([N+](=O)[O-])cc1)N1CCN(c2ccc(Nc3ccccc3)nn2)CC1`: the “activity change, positive = activation” value was inactive: -6.3%. For the compound `CCN(CC)C(=O)C1=C(C)Nc2nc3ccccc3n2C1c1cccc(Cl)c1` (stereo not given), the “activity change, positive = activation” value is inactive: 0.186%. As for `Cc1ccc(NC(=O)Cn2c(=O)c(CNc3ccccc3)cc3cc4c(cc32)OCCO4)cc1`, the “activity change, positive = activation” value is inactive: -17.1%.

Turning to `COC(=O)c1ccc(NC(=O)CSc2n[nH]c(CC(C)C)n2)cc1`, the “activity change, positive = activation” value was inactive: -0.222%. On to `COc1ccc(CNC(=O)c2cc3cccc(OC)c3oc2=O)cc1`, for which the “activity change, positive = activation” value was inactive: -12.2%. For the compound `Cc1ccc(-c2nonc2NC(=O)c2ccco2)cc1C`, the “activity change, positive = activation” value is inactive: -15.6%. In the case of `COc1cc(CNc2ccc3[nH]c(=O)[nH]c3c2)cc(Cl)c1OCc1ccccc1F` it was inactive: -32%; in that of `Cc1ccc(-c2nc3ccccc3[nH]2)cc1NC(=O)COc1cccc(C)c1C`, inactive: -23.1%. The result for `Cc1ccc(-c2nn(CC(=O)Nc3cccc(C(F)(F)F)c3)c(=O)c3ccccc23)cc1` reads inactive: 10.4% [at 11.5 µM, percent change from vehicle, -100% = no light]. `Cc1ccc(CNC(=O)c2ccc3c(c2)N(Cc2cccc(C)c2)C(=O)CS3)cc1`: the “activity change, positive = activation” value was inactive: -31.8%. On to `Cc1oc(C)c2c(=O)cc(-c3ccc4c(c3)OCO4)cc(OC(=O)c3ccc(Cl)cc3)c12`, for which the “activity change, positive = activation” value was inactive: -4.21%. On to `Cc1cccc(-c2[nH]ncc2-c2ccc3ncccc3n2)n1`, for which the “activity change, positive = activation” value was inactive: -18.6%. In the case of `Cc1cccc(C)c1NC(=O)CSCc1cnn(-c2ccccc2)c1-n1cccc1`, the “activity change, positive = activation” value is inactive: -30.6%.

Turning to `CCC(Sc1nc2ccccc2c2nc(CCc3c(C)n[nH]c3C)nn12)C(=O)Nc1ccccc1F` (stereo not given), the “activity change, positive = activation” value is inactive: -14.3%. For `NC(CSCC(=O)O)C(=O)O` (stereo not given), the “activity change, positive = activation” value is inactive: -8.79%. Turning to `COc1ccccc1Cn1c(CNS(=O)(=O)c2cccc([N+](=O)[O-])c2)nc2cccnc21`, the “activity change, positive = activation” value was inactive: -35%. As for `Cc1ccccc1C(=O)Nc1ccc(C(=O)N2CCCC(N(C)C)c3ccccc32)cc1` (stereo not given), the “activity change, positive = activation” value is inactive: -26.5%. Turning to `COc1ccc(C)cc1NC(=O)CCn1nc(C)cc1C`, the “activity change, positive = activation” value was inactive: -5.78%. Consider `COc1ccc(C)cc1NC(=O)CC(=O)Nc1ccc2nc3n(c(=O)c2c1)CCCCC3`, for which the “activity change, positive = activation” value is inactive: -29.7%. `CC(C)[C@@H]1CC[C@@H](C)CC1=O`: the “activity change, positive = activation” value is inactive: -2.79%. Take `CC[C@@]1(O)C[C@H](O[C@H]2C[C@H](N(C)C)[C@H](O[C@H]3C[C@H](O)[C@H](O[C@H]4CCC(=O)[C@H](C)O4)[C@H](C)O3)[C@H](C)O2)c2c(cc3c(c2O)C(=O)c2c(O)cccc2C3=O)[C@@H]1C(=O)OC`: the “activity change, positive = activation” value was inactive: -25.1%. Regarding `CC(=O)c1cc2ccccc2s1`, the “activity change, positive = activation” value was inactive: 5.53%. Turning to `CCOc1ccc(S(=O)(=O)N(C(=O)c2ccncc2)c2ccc3oc(C)c(C(=O)OC)c3c2)cc1`, the “activity change, positive = activation” value was inactive: -71.7%.

With `CCOc1ccc(C2=CC(c3cc(Br)ccc3F)n3ncnc3N2)cc1Cl` (stereo not given), the “activity change, positive = activation” value was inactive: -11.1%. With `Cc1nn(CC(=O)Nc2cccc(C(F)(F)F)c2)c(=O)c2nn(-c3ccccc3)c(C)c12`, the “activity change, positive = activation” value is inactive: 6.49%. For the compound `CCOc1ccc(-n2c(=O)c3c(C)c(C)sc3n(Cc3cc(=O)n4cc(Cl)ccc4n3)c2=O)cc1`, the “activity change, positive = activation” value is inactive: -7.35%.

`CC(C)CSc1oc(-c2ccco2)nc1S(=O)(=O)c1ccc(Br)cc1`: the “activity change, positive = activation” value is inactive: -19.9%.

As for `CN(C(=O)CSc1nc2ccccc2n1Cc1cccc(C(F)(F)F)c1)c1ccccc1`, the “activity change, positive = activation” value is inactive: -46.2%. As for `CC(C)C(=O)Nc1cccc(C2CN3CCSC3=N2)c1` (stereo not given), the “activity change, positive = activation” value was inactive: -9.34%.

Regarding `O=C(NCCc1csc(-c2ccc(F)cc2)n1)c1c(F)cccc1Cl`, the “activity change, positive = activation” value is inactive: -22.4%. On to `O=C(COC(=O)c1cc(-c2ccccc2)nc2c(Cl)cccc12)c1ccc(F)cc1`, for which the “activity change, positive = activation” value was inactive: -18.9%. Consider `CCn1cc(C(=O)N2CCN(c3ccc(OC)cc3)CC2)c(=O)c2cc(S(=O)(=O)N(C)C3CCCCC3)ccc21`, for which the “activity change, positive = activation” value is inactive: -4.69%. Take `COc1cccc(CNC(=O)c2nn(C)c3c2CS(=O)(=O)c2ccccc2-3)c1`: the “activity change, positive = activation” value was inactive: -5.1%. For `O=C(NCc1ccco1)c1ccc2c(c1)N(Cc1ccccc1F)C(=O)c1ccccc1S2=O` (stereo not given), the “activity change, positive = activation” value was inactive: -36.5%. Consider `COc1ccc(NC(=O)CSC2=Nc3ccccc3C3=NC(CCC(=O)NCCc4ccccc4)C(=O)N23)c(OC)c1` (stereo not given), for which the “activity change, positive = activation” value is inactive: -34.3%. In the case of `Cc1cccc(OC(=O)c2cc(-c3ccc(Cl)cc3)on2)c1C`, the “activity change, positive = activation” value is inactive: -5.81%.

Take `COc1ccc(CNC(=O)c2cc(C)nc3c2c(C)nn3-c2cccc(Cl)c2C)cc1`: the “activity change, positive = activation” value was inactive: -27.8%. For `COc1cccc(NC(=O)C(CCSC)NC(=O)C2CCC(C)CC2)c1` (stereo not given), the “activity change, positive = activation” value was inactive: -7.73%. The result for `Cc1ccccc1CNC(=O)CCC(=O)N1CC2CCCN2c2ccccc21` (stereo not given) reads inactive: -12.7%; that for `Cc1cc(O)c(-c2ccnc3cc(-c4ccccc4)nn23)cc1Cl`, inactive: -14.5%. In the case of `CC1CCN(S(=O)(=O)c2ccc3c(c2)N(CC(=O)N2CCN(c4ccccc4)CC2)C(=O)CO3)CC1`, the “activity change, positive = activation” value is inactive: -31.5%.

As to `CC(=O)c1ccc(NC(=O)Cn2ncc3c(C)n(Cc4ccc(F)cc4)c(C)c3c2=O)cc1`, the “activity change, positive = activation” value was inactive: -11.3%. Take `COc1ccccc1C(=O)Nc1nc2nc(C)c(Cc3ccccc3)c(=O)n2[nH]1`: the “activity change, positive = activation” value was inactive: 6.37%.

With `COc1ccccc1CNc1ncnc2c1c(-c1ccccc1)cn2-c1cccc(C)c1`, the “activity change, positive = activation” value is inactive: -30.3%. The result for `COc1cccc(Cn2c(CNS(=O)(=O)c3ccc4c(c3)CCCC4)nc3cccnc32)c1` reads inactive: -27.9%; that for `Cc1ccc(Nc2cc(C(=O)NCc3cccs3)c3ccccc3n2)c(C)c1`, inactive: -4.12%. Regarding `Cc1ccc(CCNC(=O)c2cc(-c3ccc(Cl)cc3)n[nH]2)cc1`, the “activity change, positive = activation” value was inactive: 0.694%. With `CN(Cc1ccc(C(C)(C)C)cc1)Cc1cccc2ccccc12`, the “activity change, positive = activation” value was inactive: -15%. The result for `Cc1ccc(NC(=O)c2ccc3[nH]c(C)cc(=O)c3c2)c(C)c1` reads inactive: -9.69%; that for `Cc1ccc(NC(=O)Cc2coc3c(C)c(C)ccc23)cc1Cl`, inactive: -16.8%. Regarding `COc1ccc(Nc2ncc3c(n2)CCN(C(=O)OC(C)(C)C)C3)cc1`, the “activity change, positive = activation” value was inactive: -2.32%. For the compound `CN(C)CCOc1cc(-c2cn[nH]c2)ccc1NC(=O)C1COc2ccccc2O1` (stereo not given), the “activity change, positive = activation” value is inactive: -41.6%. Consider `COc1ccccc1CN1CCN(C2CCN(C(=O)NC(C)C)CC2)C(=O)C1=O`, for which the “activity change, positive = activation” value was inactive: 3.48%.
